According to PMC6348740:
No constants are given. Whether binding was seen depends on the method and setting. Binding seen in cells or lysates may run through a third protein. Some binding calls cover weakened binding; strength is not graded here. Sequences can lack the tags named with a protein.

Protein sequences, listed by entry. Tags and fused reporters are not part of them. Lines headed by an entry give the natural chain unless they say otherwise; changes in a name come on top. Chains listed by the source or under a name are the forms on record and can include a tag or linker.
UniProt P04150: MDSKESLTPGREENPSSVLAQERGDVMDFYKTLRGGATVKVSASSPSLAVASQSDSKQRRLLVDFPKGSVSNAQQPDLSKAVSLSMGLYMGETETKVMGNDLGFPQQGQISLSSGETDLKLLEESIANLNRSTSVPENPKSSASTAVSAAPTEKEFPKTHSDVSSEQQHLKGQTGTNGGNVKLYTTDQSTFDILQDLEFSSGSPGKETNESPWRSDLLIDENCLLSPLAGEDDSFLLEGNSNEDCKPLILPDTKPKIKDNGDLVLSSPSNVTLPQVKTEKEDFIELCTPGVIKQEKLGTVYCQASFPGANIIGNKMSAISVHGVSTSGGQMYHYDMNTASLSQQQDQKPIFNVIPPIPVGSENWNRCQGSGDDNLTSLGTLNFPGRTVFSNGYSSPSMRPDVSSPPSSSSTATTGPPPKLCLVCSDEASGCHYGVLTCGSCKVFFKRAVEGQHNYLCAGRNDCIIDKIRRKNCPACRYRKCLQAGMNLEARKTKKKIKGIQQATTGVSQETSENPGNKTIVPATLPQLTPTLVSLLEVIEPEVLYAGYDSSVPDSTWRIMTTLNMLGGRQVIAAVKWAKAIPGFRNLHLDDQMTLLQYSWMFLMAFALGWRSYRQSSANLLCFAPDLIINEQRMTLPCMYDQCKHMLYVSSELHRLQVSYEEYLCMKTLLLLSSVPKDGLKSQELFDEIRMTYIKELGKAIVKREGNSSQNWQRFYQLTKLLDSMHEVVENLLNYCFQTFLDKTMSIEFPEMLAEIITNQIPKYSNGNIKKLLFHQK
EYFP-26/76 Y30E (P04150, form named): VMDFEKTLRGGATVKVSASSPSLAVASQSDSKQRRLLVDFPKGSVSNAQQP
FLAG-GR ΔNTD (1-25/394-777) (P04150, form named): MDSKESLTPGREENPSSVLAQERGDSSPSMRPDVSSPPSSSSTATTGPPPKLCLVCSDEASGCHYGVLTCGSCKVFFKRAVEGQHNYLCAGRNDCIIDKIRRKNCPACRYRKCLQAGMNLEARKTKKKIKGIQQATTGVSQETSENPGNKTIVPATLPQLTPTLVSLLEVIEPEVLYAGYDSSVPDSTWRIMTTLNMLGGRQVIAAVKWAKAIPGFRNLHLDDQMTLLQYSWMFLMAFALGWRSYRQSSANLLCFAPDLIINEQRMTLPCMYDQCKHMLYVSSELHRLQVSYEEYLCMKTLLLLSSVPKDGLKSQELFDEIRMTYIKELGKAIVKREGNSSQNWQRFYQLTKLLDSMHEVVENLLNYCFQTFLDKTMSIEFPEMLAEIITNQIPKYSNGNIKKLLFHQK

Biological target: T1, CCRP-V5 (cytoplasmic constitutive active/androstane receptor retention protein, pcDNA3.1-mCCRP-V5) (mouse (mCCRP)) (UniProt Q9QYI3)
T1 sequence: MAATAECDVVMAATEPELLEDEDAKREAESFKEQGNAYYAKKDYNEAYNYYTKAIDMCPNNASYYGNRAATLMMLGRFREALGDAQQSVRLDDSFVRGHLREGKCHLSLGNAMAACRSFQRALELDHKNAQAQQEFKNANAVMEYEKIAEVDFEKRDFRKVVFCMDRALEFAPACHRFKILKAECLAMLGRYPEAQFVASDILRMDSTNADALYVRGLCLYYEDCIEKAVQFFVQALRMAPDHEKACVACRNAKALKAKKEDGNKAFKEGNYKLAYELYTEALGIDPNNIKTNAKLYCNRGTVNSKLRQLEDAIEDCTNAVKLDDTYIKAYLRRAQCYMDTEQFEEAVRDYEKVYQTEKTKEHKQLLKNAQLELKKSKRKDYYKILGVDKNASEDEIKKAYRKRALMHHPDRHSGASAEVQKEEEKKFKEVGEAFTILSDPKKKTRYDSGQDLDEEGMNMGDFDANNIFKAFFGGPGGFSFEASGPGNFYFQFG
Experiment: co-IP; anti-V5 antibody with Dynabeads protein G precipitates CCRP-V5 from whole lysates of co-transfected COS-1 cells; IP buffer 20 mM Tris-HCl pH 7.5, 150 mM NaCl, 1 mM EDTA, 1% Triton-X; 2 to 4 hours at 4°C; Western blot with anti-FLAG or anti-GFP; for EYFP-26/76 in the absence or presence of co-expressed FLAG-GRΔ26-76

Row | binding | Substance
1 | binds | FLAG-GR full length (FLAG-6c-CMV-hGRα, 1-777) (from UniProt P04150 1-777)
2 | no binding | EYFP-26/76 Y30E (from UniProt P04150 26-76) (domain or fragment)
3 | binds | FLAG-GR Y30F (from UniProt P04150 1-777)
4 | binds | FLAG-GR Y30E (from UniProt P04150 1-777)
5 | binds | EYFP-26/76 WT (EYFP-c1-hGRα-26-76) (from UniProt P04150 26-76) (domain or fragment)
6 | binds | FLAG-GR ΔNTD (1-25/394-777) (from UniProt P04150 1-777) (domain or fragment)
7 | binds | FLAG-GR LBD (528-777) (from UniProt P04150 528-777) (domain or fragment)
8 | no binding | FLAG-GR ΔLBD (1-527) (from UniProt P04150 1-527) (domain or fragment)
